According to PubChem BioAssay AID624417 (National Center for Advancing Translational Sciences (NCATS), 2012):
Among all 410,000 compounds or so, about 6,400 (1.6%) were called active. Inconclusive results, whose numbers are uncertain, are shown with a selection of clear calls. Calls follow the shape of the dose curve; as a rule, active = well fitted inhibition curve with a large enough effect; inconclusive = small, poorly fitted or top-dose-only effect; inactive = no such curve, though single readings can be large or run the other way. Potencies of inconclusive entries are doubtful fits and often do not repeat.

Target: Glucagon-like peptide 1 receptor (Homo sapiens) (UniProt P43220)
UniProt P43220, sequence (P43220 whole entry, looked up): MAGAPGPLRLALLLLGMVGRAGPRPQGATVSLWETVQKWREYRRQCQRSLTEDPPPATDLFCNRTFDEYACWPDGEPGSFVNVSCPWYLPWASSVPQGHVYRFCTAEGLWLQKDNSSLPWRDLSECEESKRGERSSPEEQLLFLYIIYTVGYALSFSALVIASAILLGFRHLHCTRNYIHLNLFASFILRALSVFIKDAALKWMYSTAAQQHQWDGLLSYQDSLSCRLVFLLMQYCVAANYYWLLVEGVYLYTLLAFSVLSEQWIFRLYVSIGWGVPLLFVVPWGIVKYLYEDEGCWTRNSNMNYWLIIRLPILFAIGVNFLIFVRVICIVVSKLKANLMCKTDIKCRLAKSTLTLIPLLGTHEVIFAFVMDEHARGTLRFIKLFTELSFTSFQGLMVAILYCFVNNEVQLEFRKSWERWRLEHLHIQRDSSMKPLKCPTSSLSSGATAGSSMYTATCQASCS
Assay: qHTS of GLP-1 Receptor Inverse Agonists (Inhibition Mode); also: nearly all actives have a fitted effect of over 55% in size
Conditions: HEK293 GLP-1R CRE-luciferase, luminescence, 24 h, GLP-1R form is constitutively active; activity change, negative = inhibition: at 38.3 µM (top of the series) unless noted
Summary of the method: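 Inverse agonists were sought by their lowering of basal cAMP reporter luciferase output in HEK293 cells stably carrying constitutively active human GLP-1R, after 24 h compound treatment.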
% is scaled to controls: 0 for no effect and ±100 for the full control effect; potency is read from the fitted curve at half-maximal effect; tags tell the direction and shape of the fitted curve.

Potency, inconclusive:
Cc1ccc(CS(=O)Cc2ccc(C(=O)N3CCOCC3)o2)cc1 (stereo not given) 25.1 µM [inhibitor, single point], CCOC(=O)C1CCCN(C(=O)c2cc3c(-c4cccc(OC)c4)nn(C)c3s2)C1 (stereo not given) 5.62 µM [inhibitor, partial curve], COc1ccc(Nc2nc(-c3sc(C)nc3C)cs2)cc1 31.6 µM [inhibitor, partial curve, poor fit], CCn1nc(NS(=O)(=O)c2ccc([N+](=O)[O-])cc2)c2cc3cccc(C)c3nc21 10 µM [inhibitor, single point], COc1ccccc1N1CCN(C(c2cccs2)C(C)NC(=O)c2cccs2)CC1 (stereo not given) 12.6 µM [inhibitor, single point], COc1ccccc1N1N=C(c2ccc([N+](=O)[O-])cc2)CC1c1ccccc1 (stereo not given) 0.562 µM [inhibitor, full curve], CC(=O)N1c2ccc(S(=O)(=O)N3CCC(C(=O)Nc4cccc(C(F)(F)F)c4)CC3)cc2CC1C (stereo not given) 10 µM [inhibitor, partial curve, poor fit], Cc1ccc(NS(=O)(=O)c2cccc(C(=O)NCC(c3cccs3)N3CCOCC3)c2)cc1 (stereo not given) 10 µM [inhibitor, partial curve, poor fit], Cc1nnc(NC(=O)CSc2nccn2-c2cccc(C)c2C)s1 1.12 µM [inhibitor, full curve, poor fit], CCc1ccc(NS(=O)(=O)c2ccc3[nH]cc(C(=O)NCc4ccc(C)cc4)c(=O)c3c2)cc1 12.6 µM [inhibitor, single point], COc1cc2c(cc1OC)C(c1cccs1)N(C(=O)c1cccnc1)CC2 (stereo not given) 2.24 µM [inhibitor, full curve], CCCCCCCCC(=O)c1c(OC)oc(C=O)cc1=O 7.94 µM [inhibitor, partial curve], CCc1ccc(NC(=S)NC2CC3CCCC(C2)N3Cc2ccccc2)cc1 (stereo not given) 22.4 µM [inhibitor, partial curve, poor fit], CC(C)(C)c1ccc(OCCCC(=O)NC2=NCCS2)cc1 10 µM [inhibitor, single point], CCc1nc2c(OCc3ccc(Cl)cc3Cl)cccn2c1N(C)C(=O)C(C)C 5.62 µM [inhibitor, full curve, poor fit], CC(C)NC(=S)N/N=C/c1cccs1 1.78 µM [inhibitor, full curve, poor fit], Cc1c(Cl)cccc1NC(=O)C1CC2CCC1C2 (stereo not given) 12.6 µM [inhibitor, single point], Cc1ccc(N2CCN(S(=O)(=O)c3cccs3)CC2C)cc1 (stereo not given) 28.2 µM [inhibitor, single point], CC1=CCC[C@H]2[C@H](C1)C(=O)C[C@@H](C)[C@]2(C)CC/C(=C/CO)CO 10 µM [inhibitor, single point], CCOc1ccccc1N1CCN(Cc2ccco2)CC1 28.2 µM [inhibitor, single point], CCOC(=O)C1CCCN(C(=O)C(C)Oc2ccc(Cl)cc2Cl)C1 (stereo not given) 28.2 µM [inhibitor, single point], CC(C)(C)Cc1c(-c2ccc(Br)cc2)nc2ccc(Br)cn12 3.98 µM [inhibitor, full curve, poor fit], O=C(CCc1ccccc1)Nc1cccc(-c2nnc(-c3ccco3)o2)c1 28.2 µM [inhibitor, single point], Cc1ccc(CNC(=O)c2oc3ccc(S(=O)(=O)N4CCC5(CC4)OCCO5)cc3c2C)cc1 12.6 µM [inhibitor, single point], O=C1C(Cl)=C(NCCCO)C(=O)c2ccccc21 11.2 µM [inhibitor, single point], CC(OC(=O)c1ccccc1NCCO)C(=O)Nc1ccnn1C(C)C (stereo not given) 8.91 µM [inhibitor, partial curve, poor fit], CCNC(=O)c1c(C)oc2ncn(C)c(=O)c12 0.501 µM [inhibitor, full curve, poor fit], O=C(Nc1ccc(Nc2ccccc2)cc1)c1ccc(Cl)cc1 2.24 µM [inhibitor, full curve], CCc1ccc(CNC(=O)CSc2cc(=O)n(CC)c3ccccc23)cc1 1.41 µM [inhibitor, full curve, poor fit], COc1ccc2c3c([nH]c2c1)C(C)N(CCC(=O)NN)CC3 (stereo not given) 31.6 µM [inhibitor, single point], Oc1ccc(-c2[nH]ncc2-c2ccc(Br)cc2)c(O)c1 28.2 µM [inhibitor, single point], C[C@H]1CN([C@@H](C)CO)C(=O)Cc2cc(NC(=O)CCC(F)(F)F)ccc2O[C@H]1CN(C)S(=O)(=O)c1ccc(F)cc1 4.47 µM [inhibitor, partial curve], CCCCCCCCCc1conc1C(=O)CP(=O)(OC)OC 12.6 µM [inhibitor, partial curve, poor fit], COc1ccc(NC(=O)CN(C)C(=O)/C=C/c2cn(-c3ccccc3)nc2-c2ccc(F)cc2)cc1 1.78 µM [inhibitor, full curve, poor fit], Cc1cc(C)cc(C(O)c2ncc(-c3ccccc3C(F)(F)F)[nH]2)c1 (stereo not given) 28.2 µM [inhibitor, single point], COc1cc2nc(NC(=O)c3ccc(S(=O)(=O)N4CCc5ccccc54)cc3)sc2cc1OC 10 µM [inhibitor, partial curve, poor fit], Cc1cc(-c2nn(-c3ccccc3F)cc2CN2CCCC(O)C2)c(C)s1 (stereo not given) 6.31 µM [inhibitor, partial curve, poor fit], CCc1ccccc1N1CCN(S(=O)(=O)c2cc(OC)ccc2OC)CC1 12.6 µM [inhibitor, single point], COc1cccc(NC(=O)c2ccc(CN3CCN(c4ccccc4)CC3)cc2)c1 28.2 µM [inhibitor, single point], Cc1ccc2[nH]c(=O)c(CN(Cc3ccccc3)C(=S)NCCCN(C)C)cc2c1 7.94 µM [inhibitor, partial curve, poor fit], Cc1cccc(C)c1OCCCCn1cnc2ccccc2c1=O 28.2 µM [inhibitor, single point], COC(=O)CN1C(C(=O)c2ccccc2)=C(OC(=O)c2ccc(F)cc2)c2ccccc2S1(=O)=O 14.1 µM [inhibitor, partial curve, poor fit], CCC(C)(C)n1nnnc1CN1CCC(NC(=O)c2ccc(Br)cc2)CC1 3.55 µM [inhibitor, partial curve, poor fit], COc1cc(-c2cc(NC=O)c3ncc(-c4ccccc4)n3c2)cc(OC)c1OC 28.2 µM [inhibitor, single point], CC(CCc1ccc(O)cc1)NCc1ccc(Br)cc1 (stereo not given) 28.2 µM [inhibitor, single point], Cc1cc(OCC(=O)N2CCC(c3nc4ccccc4s3)CC2)ccc1Cl 12.6 µM [inhibitor, single point], O=C(CSc1ncc(-c2ccccc2)[nH]1)Nc1cccc(Br)c1 25.1 µM [inhibitor, single point]

Potency, active:
COc1cc2c3c(cccc3c1)C(=O)N(CCN1CCCC1)C2=O 4.47 µM, O=C(Nc1ccc(Cl)c(Cl)c1)C1=Cc2ccccc2OC1 10 µM, Cc1ccc(N2CCN(C(=O)c3ccccc3Br)CC2)c(C)c1 10 µM, Cc1ccc(S(=O)(=O)N(CC(=O)Nc2cccnc2)c2cccc(Br)c2)cc1 4.47 µM, CS(=O)(=O)N(CCc1ccccc1)CC(=O)Nc1ccc(OCc2ccccc2)cc1 11.2 µM

Potency, inactive:
Cc1cccc(OCCN2CSC(=S)N(C)C2)c1, COc1ccc(OC)c(NC(=O)c2c(NCc3ccc(OC)c(OC)c3)sc3c2CCC3)c1, O=C(CSc1nc(=O)n(CCCN2CCOCC2)c2c1CCCC2)Nc1cccc(Cl)c1, Clc1ccc2nc(Nc3ccccc3Cl)nc(-c3ccccc3)c2c1, COc1ccc(CN2CCN(c3ccccc3OC)CC2)cc1OC, CCOc1ccccc1NC(=O)Cn1c(=O)n(-c2ccccc2)c(=O)c2c1c1cc(C)ccc1n2C, CC1CCCCN1C(=O)c1ccc2c(c1)N(Cc1ccc(F)cc1)C(=O)c1ccccc1S2(=O)=O (stereo not given), CCOC(=O)C1CCCN(C(=O)c2cc(-c3ccncc3)nc3ccccc23)C1 (stereo not given), COc1cccc(-c2nn(-c3ccccc3)cc2C(=O)n2nnc3ccccc32)c1, O=C(NCCCN1CCOCC1)c1sc2ccccc2c1Cl, Cc1cc([N+](=O)[O-])ccc1NC(=O)c1csc(C)c1C

Activity change, negative = inhibition, inactive:
Cc1nn(-c2ccccc2)c(Cl)c1C(=O)NC1CCCCC1 2.91% [at 7.66 µM], COc1ccc(CC(=O)Nc2nc(-c3cc(OC)ccc3OC)cs2)cc1 12.7% [at 7.66 µM]
